Laboratory results reported in the supplement of paper PMC7125110.
± gives the standard error. Variants at the background level are over-represented here.

B1: glmS ribozyme (parent)
chain: AUAAAAGCGCCAGAACUACAGAAAUGUAGUUGACGAGGAGGAGGUUUAUCGAAUUUUCGGCGGAUGCCUCCAAA

What was measured:
Conditions in all cases: with glucosamine-6-phosphate
glucosamine-6-phosphate [1] = variants of: B1; assay: self-cleavage kobs at 40 uM GlcN6P; higher = faster cleavage; RNA array
In short: (§1)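 A hybridised Cy3 probe tracked barcoded ribozyme variants, transcribed in situ by E. coli RNA polymerase on sequenced MiSeq chips, at 37 °C. The variants received 40 μM to 10 mM glucosamine-6-phosphate in HEPES/KCl/Mg(OAc)2 buffer. kobs came from decay fits and kcat and KM from weighted Michaelis–Menten fits.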

glucosamine-6-phosphate [2] = variants of: B1; assay: self-cleavage kobs at 640 uM GlcN6P; higher = faster cleavage; RNA array
In short: as §1

glucosamine-6-phosphate [3] = variants of: B1; assay: self-cleavage kobs at 2500 uM GlcN6P; higher = faster cleavage; RNA array
In short: as §1

glucosamine-6-phosphate [4] = variants of: B1; assay: self-cleavage kobs at 10000 uM GlcN6P; higher = faster cleavage; RNA array
In short: as §1

glucosamine-6-phosphate [5] = variants of: B1; assay: self-cleavage kobs at 160 uM GlcN6P; higher = faster cleavage; RNA array
In short: as §1

Row | Variant | self-cleavage kobs at 40 uM GlcN6P (glucosamine-6-phosphate [1]) [s⁻¹] | self-cleavage kobs at 640 uM GlcN6P (glucosamine-6-phosphate [2]) [s⁻¹] | self-cleavage kobs at 2500 uM GlcN6P (glucosamine-6-phosphate [3]) [s⁻¹] | self-cleavage kobs at 10000 uM GlcN6P (glucosamine-6-phosphate [4]) [s⁻¹] | self-cleavage kobs at 160 uM GlcN6P (glucosamine-6-phosphate [5]) [s⁻¹]
1 | A14G G37C | < 1e-05 |  |  |  | 
2 | A14G G66C | 4.79e-05 ± 9.1e-06 | 0.000484 ± 0.00012 | 0.00114 ± 0.00025 | 0.00147 ± 0.00015 | 
3 | A14U A36G | < 1e-05 |  |  |  | 
4 | A14U C34G U54C | < 1e-05 |  | < 1e-05 | < 1e-05 | 
5 | A14U C67A | 6.24e-05 ± 7.4e-06 | 0.000406 ± 5.4e-05 | 0.00137 ± 0.00031 | 0.00155 ± 0.00023 | 0.000172 ± 2.5e-05
6 | A14U C68U | 2.73e-05 ± 7.7e-06 | 0.000297 ± 3.8e-05 | 0.000422 ± 6.8e-05 |  | 6.57e-05 ± 1.2e-05
7 | A14U G37C | < 1e-05 |  |  |  | 
8 | A14U G38C U57A | < 1e-05 |  |  |  | 
9 | A14U G38U G43A A64C | < 1e-05 |  |  | < 1e-05 | 
10 | A14U G40A | 4.43e-05 ± 1e-05 | 0.000643 ± 0.00013 |  | 0.00161 ± 0.00021 | 
11 | A14U G41A G66C U69G | < 1e-05 |  | < 1e-05 |  | 
12 | A14U U57G | < 1e-05 |  |  |  | 
13 | A15C A36C | < 1e-05 |  |  |  | 
14 | A15C A36C G38U | < 1e-05 |  |  |  | 
15 | A15C A48G | < 1e-05 |  |  |  | < 1e-05
16 | A15C C16G | 5.89e-05 ± 1.4e-05 | 0.000438 ± 5.6e-05 |  | 0.00295 ± 0.00045 | 
17 | A15C C50G A53G G62A C70G | 0.000105 ± 3e-05 | 8.17e-05 ± 2.4e-05 | 0.000125 ± 4.1e-05 | 8.78e-05 ± 1.9e-05 | 
18 | A15C G37U A53C G59U | < 1e-05 |  |  |  | 
19 | A15C G41A C70U | 0.000261 ± 6.2e-05 |  |  | 0.0111 ± 0.0023 | 
20 | A15C U46A C58U | < 1e-05 |  |  |  | 

Row | Variant | self-cleavage kobs at 40 uM GlcN6P (glucosamine-6-phosphate [1]) [s⁻¹] | self-cleavage kobs at 640 uM GlcN6P (glucosamine-6-phosphate [2]) [s⁻¹] | self-cleavage kobs at 2500 uM GlcN6P (glucosamine-6-phosphate [3]) [s⁻¹] | self-cleavage kobs at 10000 uM GlcN6P (glucosamine-6-phosphate [4]) [s⁻¹] | self-cleavage kobs at 160 uM GlcN6P (glucosamine-6-phosphate [5]) [s⁻¹]
21 | A15C U69C | 0.000108 ± 2.5e-05 | 0.000226 ± 8.5e-05 | 0.000165 ± 4.4e-05 | 0.00087 ± 0.00022 | 
22 | A15G A33C U46G | < 1e-05 |  |  |  | 
23 | A15G C61U | < 1e-05 |  |  |  | 
24 | A15G G51C U54G | < 1e-05 |  | < 1e-05 |  | 
25 | A15G U57G C58U G59U C70U | < 1e-05 |  |  |  | 
26 | A15U A42C C68G | < 1e-05 |  |  |  | 
27 | A15U A53U | 9.26e-05 ± 9.9e-06 | 0.000755 ± 0.00012 | 0.00314 ± 0.00055 | 0.0042 ± 0.00042 | 0.000245 ± 3.8e-05
28 | A15U G29A C34G | < 1e-05 |  |  |  | 
29 | A15U G29U G60C | < 1e-05 |  |  |  | 
30 | A15U G32U A33U | < 1e-05 |  |  |  | 
31 | A15U G37C C70G | < 1e-05 |  |  |  | 
32 | A15U G40A C50G C68A | < 1e-05 |  |  | < 1e-05 | 
33 | A15U G43U U54C G60C C70G | < 1e-05 |  |  | < 1e-05 | 
34 | A15U G44C | < 1e-05 |  |  |  | 
35 | A15U G60U C70G | < 1e-05 |  |  |  | 
36 | A15U U30C G51C | < 1e-05 |  |  |  | 
37 | C16A A36C | < 1e-05 |  |  | < 1e-05 | 
38 | C16A A48U C50U | < 1e-05 |  | < 1e-05 | < 1e-05 | 
39 | C16A A52G | < 1e-05 |  |  |  | 
40 | C16A A53G | 7.66e-05 ± 1.7e-05 | 0.000374 ± 9.2e-05 | 0.000777 ± 0.00017 | 0.0017 ± 0.00029 | 0.000134 ± 3.8e-05

Row | Variant | self-cleavage kobs at 40 uM GlcN6P (glucosamine-6-phosphate [1]) [s⁻¹] | self-cleavage kobs at 640 uM GlcN6P (glucosamine-6-phosphate [2]) [s⁻¹] | self-cleavage kobs at 2500 uM GlcN6P (glucosamine-6-phosphate [3]) [s⁻¹] | self-cleavage kobs at 10000 uM GlcN6P (glucosamine-6-phosphate [4]) [s⁻¹] | self-cleavage kobs at 160 uM GlcN6P (glucosamine-6-phosphate [5]) [s⁻¹]
41 | C16A G29C G37U | < 1e-05 |  | < 1e-05 |  | 
42 | C16A G43C G66C | < 1e-05 |  |  | < 1e-05 | 
43 | C16A G51C G60A | < 1e-05 | < 1e-05 |  |  | 
44 | C16G G29A U49C | < 1e-05 |  |  | < 1e-05 | 
45 | C16G G37U | < 1e-05 | < 1e-05 | < 1e-05 | < 1e-05 | < 1e-05
46 | C16G U49A | < 1e-05 | < 1e-05 | < 1e-05 |  | 
47 | C16U C34U | < 1e-05 |  |  | < 1e-05 | < 1e-05
48 | C16U G29C G37A G44A | < 1e-05 |  |  |  | 
49 | C16U G32C U54C | < 1e-05 |  |  |  | < 1e-05
50 | C16U G35U | < 1e-05 | < 1e-05 |  | < 1e-05 | < 1e-05
51 | C16U G40U U56A C71G | 3.89e-05 ± 1.1e-05 |  |  | 0.00169 ± 0.00032 | 
52 | C16U G41U A53U | 3.27e-05 ± 1.6e-05 |  |  |  | 
53 | C16U U54C | 0.000813 ± 0.00013 | 0.00641 ± 0.001 | 0.00606 ± 0.0012 | 0.0254 ± 0.0047 | 0.00146 ± 0.00024
54 | C19A G40C | 7.99e-05 ± 1.9e-05 | 0.000434 ± 0.00012 | 0.00156 ± 0.00041 | 0.00113 ± 0.00023 | 0.000173 ± 5.2e-05
55 | G29A A33U C58U | < 1e-05 | < 1e-05 |  |  | 
56 | G29A A42U | < 1e-05 |  |  |  | < 1e-05
57 | G29A A48U | < 1e-05 |  |  |  | < 1e-05
58 | G29A A48U G51C C61U | < 1e-05 |  |  |  | 
